# Measurements from PubChem BioAssay (Tox21).
# Values joined by “and” are separate entries in the source; they are usually repeats but may differ in a detail not shown here. Equal values may be shown once. This list was built around the results that the source calls inconclusive (neither active nor inactive); the mix of calls is not that of the screen. For part of these data: Where the call is inconclusive, the potency comes from a doubtful curve fit. Some structures have more than one record in an assay (separate samples or runs), and their calls can disagree. Active and inactive are the calls of the source. Unless noted, the call rests on the fitted dose curve; in most records, active means well fitted curve in the direction sought with a large enough effect in the repeat runs; inconclusive means weak or mixed curves; inactive means no such curve, though single readings can be large; an effect the other way counts as inactive or inconclusive. Peptide text beside a SMILES is read from it.
# Tests used:
# [1] = biological target: Peroxisome proliferator-activated receptor gamma (Homo sapiens) (UniProt P37231); experiment: qHTS assay to identify small molecule antagonists of the peroxisome proliferator-activated receptor gamma (PPARg) signaling pathway (AID 743191; calls by dose curve; further: nearly all actives have a fitted effect of over 30% in size; further: potency means the concentration at half of the fitted maximal effect; on ratio activity, negative = inhibition: on the % scale 0 is the no-effect control and ±100 the full control effect); conditions: HEK293H PPARg-UAS-bla, beta-lactamase ratio, antagonist, 17 h; ratio activity, negative = inhibition: at 62.6 µM (top of the series) unless noted
# Outline: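 GeneBLAzer PPARg UAS-bla HEK293H cells carrying a UAS-driven beta-lactamase reporter were plated at 3000 cells/well, preincubated 5 h at 37C, then given compound for 17 h at 37C; LiveBLAzer B/G FRET substrate was read after 1 h at room temperature.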
# [2] = qHTS assay to identify small molecule antagonists of the peroxisome proliferator-activated receptor gamma (PPARg) signaling pathway - cell viability counter screen (AID 743194); conditions: PPARg-bla HEK293H viability, CellTiter-Glo luminescence, 17 h, co-treated with 50 nM rosiglitazone; activity change, negative = cytotoxicity: at 62.6 µM (top of the series) unless noted; further: nearly all actives have a fitted effect of over 55% in size; further: potency means the concentration at half of the fitted maximal effect; on activity change, negative = cytotoxicity: on the % scale 0 is the no-effect control and ±100 the full control effect
# Outline: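 PPARg-UAS-bla HEK293H cells were plated, rested 5 h at 37 C, then treated with compounds plus rosiglitazone (50 nM final) for 17 h at 37 C; viability was then read by CellTiter-Glo luminescence after 30 min at room temperature.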
# [3] = biological target: Peroxisome proliferator-activated receptor delta (Homo sapiens) (UniProt Q03181); experiment: qHTS assay to identify small molecule antagonists of the peroxisome proliferator-activated receptor delta (PPARd) signaling pathway (AID 743215; active means well fitted inhibition curve with a large enough effect in the signal ratio in the repeat runs, not every such curve was filed as active; inconclusive means weak or mixed curves, or effect the other way; inactive means no such curve, though single readings can be large or run the other way; the % refers to the signal ratio;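 further: cells stimulated with agonist L165041 at 300 nM final during compound exposure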; further: potency means the concentration at half of the fitted maximal effect; on ratio activity, negative = inhibition: on the % scale 0 is the no-effect control and ±100 the full control effect); conditions: HEK293H PPARd-UAS-bla, beta-lactamase FRET ratio, antagonist, 17 h; ratio activity, negative = inhibition: at 62 µM (top of the series) unless noted
# Outline: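 Antagonist-mode beta-lactamase reporter screen: HEK293H cells with UAS-bla under PPARd control, stimulated by 300 nM L165041 (final) alongside test compound for 17 h at 37 C, then FRET fluorescence after 2 h substrate incubation.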
# [4] = biological target: Bile acid receptor (Homo sapiens) (UniProt Q96RI1); experiment: qHTS assay to identify small molecule antagonists of the farnesoid-X-receptor (FXR) signaling pathway (AID 743217; active means well fitted inhibition curve with a large enough effect in the signal ratio in the repeat runs, not every such curve was filed as active; inconclusive means weak or mixed curves, or effect the other way; inactive means no such curve, though single readings can be large or run the other way; the % refers to the signal ratio; further: potency means the concentration at half of the fitted maximal effect); conditions: HEK293T FXR-UAS-bla, beta-lactamase ratio, CDCA-stimulated, 16 h; activity change, negative = inhibition: at 62.6 µM (top of the series) unless noted
# Outline: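 Beta-lactamase reporter under UAS control in HEK 293T cells; compound exposure 16 h at 37 °C in the presence of chenodeoxycholic acid (50 uM final); signal from B/G FRET substrate after 2 h at room temperature.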
# [5] = qHTS assay to identify small molecule agonists of the farnesoid-X-receptor (FXR) signaling pathway - cell viability counter screen (AID 743218); conditions: FXR-bla HEK293T viability, CellTiter-Glo luminescence, 16 h; viability change, negative = cytotoxic: at 62.6 µM (top of the series) unless noted; further: potency means the concentration at half of the fitted maximal effect; nearly all actives have a fitted effect of over 45% in size
# Outline: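 In GeneBLAzer FXR-UAS-bla HEK 293T cells, compounds act for 16 h at 37 C. Cell viability is then scored in the reporter wells by CellTiter-Glo, 30 min at RT, luminescence.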
# [6] = qHTS assay to identify small molecule agonists of the vitamin D receptor (VDR) signaling pathway - cell viability counter screen (AID 743224); conditions: VDR-bla HEK293T viability, CellTiter-Glo luminescence, 16 h; activity change, negative = cytotoxicity: at 62.6 µM (top of the series) unless noted; further: potency means the concentration at half of the fitted maximal effect; nearly all actives have a fitted effect of over 50% in size
# Outline: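 VDR-bla cell line, quantitative HTS format; 16 h compound incubation (37C, 5% CO2); ATP-based CellTiter-Glo luminescence measured in the reporter assay wells.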
# [7] = qHTS assay for small molecule agonists of the antioxidant response element (ARE) signaling pathway (AID 743202; active means well fitted activation curve with a large enough effect in the signal ratio in the repeat runs, not every such curve was filed as active; inconclusive means weak or mixed curves, or effect the other way; inactive means no such curve, though single readings can be large or run the other way; the % refers to the signal ratio; further: potency means the concentration at half of the fitted maximal effect); conditions: HepG2 ARE-bla reporter, beta-lactamase FRET, 16 h; activation: at 73.3 µM (top of the series) unless noted
# Outline: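 Read-out: LiveBLAzer B/G FRET substrate fluorescence after 2 h at room temperature, following 16 h compound treatment at 37 C of HepG2 cells carrying an ARE-driven beta-lactamase reporter.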
# [8] = qHTS assay to identify small molecule agonists of the peroxisome proliferator-activated receptor delta (PPARd) signaling pathway - cell viability counter screen (AID 743211); conditions: PPARd-bla HEK293H viability, CellTiter-Glo luminescence, 17 h; activity change, negative = cytotoxicity: at 62.6 µM (top of the series); further: nearly all actives have a fitted effect of over 55% in size; further: potency means the concentration at half of the fitted maximal effect
# Outline: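 HEK293H PPARd-bla, 3000 cells/well; 5 h preincubation 37C/5% CO2; cpd in DMSO, 17 h 37C; B/G FRET substrate 2 h RT; CellTiter-Glo 30 min RT, luminescence.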
# [9] = biological target: Peroxisome proliferator-activated receptor delta (Homo sapiens) (UniProt Q03181); experiment: qHTS assay to identify small molecule agonists of the peroxisome proliferator-activated receptor delta (PPARd) signaling pathway (AID 743212; calls by dose curve; further: on the % scale 0 is the no-effect control and ±100 the full control effect); conditions: HEK293H PPARd-UAS-bla, beta-lactamase FRET ratio, 17 h
# Outline: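 GeneBLAzer PPARd UAS-bla HEK293H cells (beta-lactamase reporter under UAS control), plated and rested 5 h at 37 C, then exposed to compounds in DMSO at 37 C; LiveBLAzer B/G FRET substrate added, 2 h room temperature, fluorescence read.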
# [10] = biological target: Vitamin D3 receptor (Homo sapiens) (UniProt P11473); experiment: qHTS assay to identify small molecule agonists of the vitamin D receptor (VDR) signaling pathway (AID 743222; calls by dose curve; further: potency means the concentration at half of the fitted maximal effect); conditions: HEK293T VDR-UAS-bla, beta-lactamase FRET ratio, 16 h; activation: at 63.5 µM (top of the series) unless noted
# Outline: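 Agonist activity measured in VDR-bla reporter cells. Exposure 16 h, 37C, 5% CO2; detection by B/G FRET substrate, 2 h RT.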
# [11] = biological target: Vitamin D3 receptor (Homo sapiens) (UniProt P11473); experiment: qHTS assay to identify small molecule antagonists of the vitamin D receptor (VDR) signaling pathway (AID 743223; active means well fitted inhibition curve with a large enough effect in the signal ratio in the repeat runs, not every such curve was filed as active; inconclusive means weak or mixed curves, or effect the other way; inactive means no such curve, though single readings can be large or run the other way; the % refers to the signal ratio; further: potency means the concentration at half of the fitted maximal effect); conditions: VDR-UAS-bla HEK293T, beta-lactamase FRET ratio, 16 h; activity change, negative = inhibition: at 61 µM (top of the series) unless noted
# Outline: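 Antagonist mode uses 1alpha,25-dihydroxyvitamin D3 at 3 nM final as stimulus. VDR-bla cells receive compounds in DMSO, incubate 16 h at 37C, then a beta-lactamase FRET substrate for 2 h at room temperature before fluorescence measurement.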
# [12] = qHTS assay for small molecule agonists of the antioxidant response element (ARE) signaling pathway - cell viability counter screen (AID 743203; calls by dose curve; further: potency means the concentration at half of the fitted maximal effect; nearly all actives have a fitted effect of over 55% in size); conditions: ARE-bla HepG2 viability, CellTiter-Glo luminescence, 16 h; viability change, negative = cytotoxic: at 73.3 µM (top of the series)
# Outline: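 Cells (ARE-bla HepG2, 2,000/well) receive DMSO-dissolved compounds after a 5 hrs rest. Plates incubate 16 hrs at 37C/5% CO2. CellTiter-Glo luminescence is then recorded after 30 min at room temperature.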
# [13] = qHTS assay for small molecule activators of the heat shock response signaling pathway - cell viability counter screen (AID 743209); conditions: HSE-bla HeLa viability, CellTiter-Glo luminescence, 5 h; activity change, negative = cytotoxicity: at 62.6 µM (top of the series) unless noted; further: potency means the concentration at half of the fitted maximal effect; nearly all actives have a fitted effect of over 50% in size
# Outline: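 Quantitative HTS format, Tox21 10K library. HeLa cells carrying an HSE-driven beta-lactamase reporter were treated 5 h at 37 C, then assessed for viability by CellTiter-Glo luminescence.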
# [14] = qHTS assay for small molecule activators of the heat shock response signaling pathway (AID 743210; active means well fitted activation curve with a large enough effect in the signal ratio in the repeat runs, with a control signal flat, not every such curve was filed as active; inconclusive means weak or mixed curves; the % refers to the signal ratio; further: potency means the concentration at half of the fitted maximal effect); conditions: HeLa HSE-bla reporter, beta-lactamase ratio, 5 h; activation: at 62.6 µM (top of the series)
# Outline: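 HSE-bla HeLa cells (beta-lactamase reporter under heat shock response elements) were exposed to compounds for 5 h at 37 C, then loaded with LiveBLAzer B/G FRET substrate for 2.5 h at room temperature before fluorescence reading.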
# [15] = qHTS assay to identify small molecule antagonists of the peroxisome proliferator-activated receptor delta (PPARd) signaling pathway - cell viability counter screen (AID 743213); conditions: PPARd-bla HEK293H viability, CellTiter-Glo luminescence, 17 h; viability change, negative = cytotoxic: at 62 µM (top of the series) unless noted; further: potency means the concentration at half of the fitted maximal effect; nearly all actives have a fitted effect of over 50% in size
# Outline: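 PPARd-bla HEK293H cells were treated with compounds plus agonist L165041 (300 nM final) for 17 h at 37 C. Viability was then read in the same wells by CellTiter-Glo luminescence after 30 min at room temperature.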
# Tags describe the fitted curve by direction and shape or compound fluorescence and quenching.
# UniProt P37231, sequence (P37231 whole entry, looked up): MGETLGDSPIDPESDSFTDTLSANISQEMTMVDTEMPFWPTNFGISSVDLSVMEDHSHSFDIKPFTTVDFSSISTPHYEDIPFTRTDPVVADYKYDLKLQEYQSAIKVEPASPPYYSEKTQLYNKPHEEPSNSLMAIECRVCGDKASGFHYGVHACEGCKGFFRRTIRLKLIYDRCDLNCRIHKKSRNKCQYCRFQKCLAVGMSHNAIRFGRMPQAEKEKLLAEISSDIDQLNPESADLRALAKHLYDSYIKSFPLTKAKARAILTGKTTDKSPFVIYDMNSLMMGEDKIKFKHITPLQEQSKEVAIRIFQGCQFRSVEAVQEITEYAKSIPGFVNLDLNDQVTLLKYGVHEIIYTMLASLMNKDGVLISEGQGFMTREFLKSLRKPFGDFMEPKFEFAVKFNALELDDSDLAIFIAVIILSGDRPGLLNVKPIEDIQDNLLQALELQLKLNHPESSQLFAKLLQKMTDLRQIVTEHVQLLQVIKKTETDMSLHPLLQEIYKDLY
# UniProt Q03181, sequence (Q03181 whole entry, looked up): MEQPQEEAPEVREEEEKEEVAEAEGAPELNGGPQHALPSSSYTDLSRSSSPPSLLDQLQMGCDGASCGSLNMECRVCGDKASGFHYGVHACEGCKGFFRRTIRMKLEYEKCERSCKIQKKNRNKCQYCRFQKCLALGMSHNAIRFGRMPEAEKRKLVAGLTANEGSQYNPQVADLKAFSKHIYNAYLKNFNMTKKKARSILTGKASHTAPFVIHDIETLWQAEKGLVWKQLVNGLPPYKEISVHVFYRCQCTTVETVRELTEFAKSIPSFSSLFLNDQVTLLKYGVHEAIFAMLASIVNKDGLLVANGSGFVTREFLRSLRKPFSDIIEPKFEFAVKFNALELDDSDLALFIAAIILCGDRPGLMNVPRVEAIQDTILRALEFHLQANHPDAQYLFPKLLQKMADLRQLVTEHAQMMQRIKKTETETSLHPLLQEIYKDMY
# UniProt P11473, sequence (P11473 whole entry, looked up): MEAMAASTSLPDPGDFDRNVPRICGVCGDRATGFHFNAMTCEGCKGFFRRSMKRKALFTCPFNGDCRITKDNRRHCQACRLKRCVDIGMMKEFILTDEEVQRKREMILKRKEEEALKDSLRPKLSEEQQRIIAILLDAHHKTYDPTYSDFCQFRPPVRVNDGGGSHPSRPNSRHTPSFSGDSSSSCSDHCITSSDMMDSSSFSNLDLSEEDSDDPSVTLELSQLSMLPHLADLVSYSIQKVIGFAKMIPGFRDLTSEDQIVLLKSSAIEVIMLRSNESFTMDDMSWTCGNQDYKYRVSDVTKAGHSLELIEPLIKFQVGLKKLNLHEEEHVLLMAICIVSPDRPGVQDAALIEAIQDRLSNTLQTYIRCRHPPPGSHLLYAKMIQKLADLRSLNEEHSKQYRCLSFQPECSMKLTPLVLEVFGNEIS
# UniProt Q96RI1, sequence (Q96RI1 whole entry, looked up): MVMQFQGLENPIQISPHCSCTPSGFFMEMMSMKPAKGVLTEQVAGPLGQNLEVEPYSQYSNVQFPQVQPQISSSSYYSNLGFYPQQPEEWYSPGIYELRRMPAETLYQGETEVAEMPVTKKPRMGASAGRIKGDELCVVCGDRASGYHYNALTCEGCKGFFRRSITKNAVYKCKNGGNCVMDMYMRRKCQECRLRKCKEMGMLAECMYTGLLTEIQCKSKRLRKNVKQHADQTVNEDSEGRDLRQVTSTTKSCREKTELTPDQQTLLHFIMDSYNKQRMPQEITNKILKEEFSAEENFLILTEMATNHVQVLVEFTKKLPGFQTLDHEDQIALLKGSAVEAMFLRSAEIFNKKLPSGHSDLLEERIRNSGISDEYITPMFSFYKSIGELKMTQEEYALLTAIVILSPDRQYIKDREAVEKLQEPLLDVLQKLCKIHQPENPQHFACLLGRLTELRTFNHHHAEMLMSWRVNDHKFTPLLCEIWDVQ
smiles,measurement,setting,value
COC(=O)[C@H](Cc1ccccc1)NC(=O)[C@@H](N)CC(=O)O (H-Asp-Phe-OMe),"ratio activity, negative = inhibition",[1],inconclusive: 7.01%
same,Potency,[2],inactive
same,"ratio activity, negative = inhibition",[3],inconclusive: 2.29%
same,"activity change, negative = inhibition",[4],inconclusive: -13.6%
same,Potency,[5],"inconclusive: 33.5 µM [cytotoxic, single point]"
same,Potency,[6],"inconclusive: 11.7 µM [cytotoxic, partial curve, poor fit]"
CN(C)[C@@H]1C(=O)C(C(N)=O)=C(O)[C@@]2(O)C(=O)C3=C(O)c4c(O)ccc(Cl)c4[C@@H](O)[C@H]3C[C@@H]12,Potency,[1],"inconclusive: 26.6 µM [fluorescent, partial curve]"
same,activation,[7],inconclusive: -21.3%
same,Potency,[8],inactive
same,activation,[9]; activation: at 62.6 µM (top of the series) unless noted,inconclusive: -16.4%
same,Potency,[3],"inconclusive: 26.6 µM [rising, partial curve]"
same,Potency,[4],"inconclusive: 29.8 µM [rising, partial curve, poor fit]"
same,Potency,[10],"inconclusive: 26.6 µM [rising, partial curve]"
same,Potency,[11],inconclusive: 19 µM [partial curve]
O=C(Cl)c1c(Cl)c(Cl)c(C(=O)Cl)c(Cl)c1Cl,"ratio activity, negative = inhibition",[1],inconclusive: 3.78%
same,Potency,[2],"inconclusive: 21.9 µM [cytotoxic, single point]"
same,Potency,[4],"inconclusive: 4.9 µM [rising, full curve, poor fit]"
O=C1NC(=O)c2cc([N+](=O)[O-])ccc21,Potency,[1],"inconclusive: 24.8 µM [inhibitor, partial curve, poor fit]"
same,Potency,[7],"inconclusive: 49 µM [rising, partial curve]"
same,Potency,[6],"inconclusive: 22.1 µM [cytotoxic, partial curve, poor fit]"
Cn1cnc2c1c(=O)[nH]c(=O)n2C,"ratio activity, negative = inhibition",[1],inconclusive: 17.6%
same,activation,[7],inconclusive: 26.6% [at 34.3 µM]
same,Potency,[12],"inconclusive: 2.66 µM [cytotoxic, single point]"
same,Potency,[13],"inconclusive: 10.6 µM [cytotoxic, partial curve, poor fit]"
same,"activity change, negative = cytotoxicity",[8],inconclusive: 2.81% [cytotoxic]
Oc1ccc(Cl)cc1Cc1cc(Cl)ccc1O,Potency,[1],active: 9.95 µM and inconclusive: 5.49 µM [full curve] and active: 26.6 µM
same,Potency,[2],active: 11.2 µM and active: 3.89 µM and active: 16.8 µM
same,Potency,[14],inconclusive: 53.8 µM and inconclusive: 57.1 µM [activator] and inconclusive: 34.8 µM
same,Potency,[8],active: 44.4 µM and active: 30.9 µM and active: 29.8 µM
same,activation,[9]; at 62.6 µM (top of the series),inconclusive: 2.42%
same,activation,[9]; at 81.1 µM (top of the series),inconclusive: 0%
same,Potency,[15],"active: 25 µM and inconclusive: 43.6 µM [cytotoxic, partial curve, poor fit] and inconclusive: 13.3 µM [cytotoxic, full curve, poor fit]"
same,Potency,[3],"active: 55.9 µM and inconclusive: 54.9 µM [inhibitor, partial curve, poor fit]"
same,Potency,[4],"inconclusive: 55.9 µM and inconclusive: 34.7 µM [inhibitor, partial curve]"
same,"activity change, negative = inhibition",[4],inconclusive: -32.5% [inhibitor]
same,Potency,[5],"inconclusive: 62.8 µM [cytotoxic, partial curve, poor fit] and active: 49 µM and inconclusive: 4.22 µM [cytotoxic]"
same,activation,[10],inconclusive: -1.8%
same,Potency,[11],"inconclusive: 55.9 µM and inconclusive: 61.7 µM [inhibitor, single point] and inconclusive: 1.3 nM [inhibitor]"
same,Potency,[6],"active: 11.2 µM and active: 38.9 µM and inconclusive: 29.8 µM [cytotoxic, partial curve]"
